{"source": "the supplement of paper PMC11417369", "note": "± gives the standard deviation of the averaged measurements. The list shows a part of the results."}
{"system": "PfAP2-LT AP2 domain (GST-tagged)", "test": "gcPBM binding intensity (ln(normalized median fluorescence intensity)); higher = stronger DNA binding", "outline": "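An Agilent 4 × 180k array of primer-extended double-stranded 36-bp intergenic genomic probes, with negative controls, was incubated for 1 h with GST-tagged P. falciparum DNA-binding domains expressed in E. coli. Alexa488 anti-GST antibody detected bound protein, scanned at 488 nm. Binding intensity is the highest Masliner-normalised natural-log median intensity across replicate spots of either probe orientation.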"}
{"sequence": "TTTACACTTTTTTTTGTACACACTAATAAGATTAAC [CACACA_site9304]", "gcPBM binding intensity (ln)": "8.85 ± 0.43"}
{"sequence": "ACATTACAATTATTATAATCAATATATAACCTCTAA [TGCATGCA_negctrl_site105]", "gcPBM binding intensity (ln)": "8.56 ± 0.37"}
{"sequence": "AAAAAAATTTTTAAAAGTACATTAATATTAATATGT [XGTACX_site5177]", "gcPBM binding intensity (ln)": "8.46 ± 0.46"}
{"sequence": "ATATATTATATTTAAGTGCATTAATTAAAATGCTTA [GTGCAC_site9403]", "gcPBM binding intensity (ln)": "8.34 ± 0.36"}
{"sequence": "CATTAATATATATATAGTACATATACACCTTCATTA [XGTACX_site8473]", "gcPBM binding intensity (ln)": "8.77 ± 0.45"}
{"sequence": "AAAAAAAATCAGACAGGTACACATTCCATGTTCAAA [XGTACX_site5380]", "gcPBM binding intensity (ln)": "8.86 ± 0.42"}
{"sequence": "TATGAAGTGCACAATACACACTAATTCTATATAAAT [CACACA_site7269]", "gcPBM binding intensity (ln)": "9.1 ± 0.45"}
{"sequence": "ATAATTAAATAAAAAAGTACACATACATCATAATGC [XGTACX_site7656]", "gcPBM binding intensity (ln)": "8.81 ± 0.46"}
{"sequence": "CAATTAAAAAATAATACATGCATATAAATAGATATT [TGCATGCA_site427]", "gcPBM binding intensity (ln)": "8.95 ± 0.42"}
{"sequence": "AAAATAAATATAAAATGTACTTATATATATATATAT [XGTACX_site7803]", "gcPBM binding intensity (ln)": "8.97 ± 0.16"}
{"sequence": "TAAGAATACGAAAGGTGTACACTGTGGAGACTTCAA [XGTACX_site2619]", "gcPBM binding intensity (ln)": "9.01 ± 0.37"}
{"sequence": "TATAATATATATGTAACACACAAAAGTTATATACTT [CACACA_site2868]", "gcPBM binding intensity (ln)": "8.79 ± 0.4"}
{"sequence": "TATATAATAACATATGCATGCAAGTAATATAACCAA [TGCATGCA_site324]", "gcPBM binding intensity (ln)": "9.32 ± 0.28"}
{"sequence": "AGGAAATGTTTATATACATGCATAATTAAATATAAT [TGCATGCA_site672]", "gcPBM binding intensity (ln)": "8.74 ± 0.46"}
{"sequence": "ATGTAATCATTTTCGACTTTTTTTTTTTTTTTTTTT [CACACA_negctrl_site1132]", "gcPBM binding intensity (ln)": "8.65 ± 0.51"}
{"sequence": "TTTTTAATTAATCTTATAAATATTTATAAATATATA [CACACA_negctrl_site1485]", "gcPBM binding intensity (ln)": "8.13 ± 0.38"}
{"sequence": "ATAAAATGCGCAAACACACACAAAAAAAAGATATAT [CACACA_site6875]", "gcPBM binding intensity (ln)": "9.48 ± 0.43"}
{"sequence": "CATATTGTCATTCTGGTGCACTTTTTTTTTTTTTTT", "gcPBM binding intensity (ln)": "8.99 ± 0.4"}
{"sequence": "ATATAATATAACAATACGCACACGTATACAAAAAAA [CACACA_site3151]", "gcPBM binding intensity (ln)": "9.08 ± 0.44"}
{"sequence": "TTTTCATGTTTTTTTCTTTATTTTTTTTTTTTTTTT [GTGCAC_negctrl_site511]", "gcPBM binding intensity (ln)": "8.38 ± 0.67"}
{"sequence": "TTTTTTTATTATTATTGTACAAGGCCTTAGGTGATT [XGTACX_site5050]", "gcPBM binding intensity (ln)": "8.68 ± 0.53"}
{"sequence": "TACTTAATTATAAGGACATGCACAAAAGGAATTATT [TGCATGCA_site468]", "gcPBM binding intensity (ln)": "8.81 ± 0.45"}
{"sequence": "ATTATATTTCAATTATGTACATATAAAATGAATAAA [XGTACX_site4204]", "gcPBM binding intensity (ln)": "8.45 ± 0.38"}
{"sequence": "TTTTTTTTTTTTTTTTTTTTCTTCATTTAATTTATA [GTGCAC_negctrl_site17]", "gcPBM binding intensity (ln)": "8.36 ± 0.41"}
{"sequence": "AATTTTCATTTTAGAAGTACACACAAAAAATAAAAT [XGTACX_site4426]", "gcPBM binding intensity (ln)": "8.75 ± 0.42"}
{"sequence": "AAATAAAATACAATATGATAAAATGTTATCATATAT [CACACA_negctrl_site538]", "gcPBM binding intensity (ln)": "8.78 ± 0.45"}
{"sequence": "ATAAATAATATAAATACACACTAAAAAAGATATATA [CACACA_site6397]", "gcPBM binding intensity (ln)": "8.97 ± 0.38"}
{"sequence": "AATAAAAGGAATAATTGTACATAATGATTATACGTT [XGTACX_site7548]", "gcPBM binding intensity (ln)": "8.84 ± 0.38"}
{"sequence": "TTATTTTAATTTTTGGTGCATATTCAAGTGTACCTT [GTGCAC_site9791]", "gcPBM binding intensity (ln)": "8.71 ± 0.46"}
{"sequence": "TAATGTACTTAAACCGCACACATATAAAAAAATAAA [CACACA_site8926]", "gcPBM binding intensity (ln)": "9.04 ± 0.38"}
{"sequence": "TTTTGTAAAATTAATTTATTATACATATATATTTCT [GTGCAC_negctrl_site728]", "gcPBM binding intensity (ln)": "8.56 ± 0.53"}
{"sequence": "TATTTACATATTTATATACACACTTTTGCGTGTCTG [CACACA_site1110]", "gcPBM binding intensity (ln)": "9.36 ± 0.67"}
{"sequence": "AATACTCCATTGTATAGTACATATATTTTTATTTAT [XGTACX_site3641]", "gcPBM binding intensity (ln)": "8.78 ± 0.41"}
{"sequence": "AATAAAAAAAAAAATAATATATATGTATAAATATAT [CACACA_negctrl_site1561]", "gcPBM binding intensity (ln)": "8.54 ± 0.47"}
{"sequence": "AGAATTTATAAAAACTGTACATATTTTCCAGTTATA [XGTACX_site2848]", "gcPBM binding intensity (ln)": "8.54 ± 0.45"}
{"sequence": "TATTTTTATTTATATACACACTTACATATTTATATT [CACACA_site7666]", "gcPBM binding intensity (ln)": "8.97 ± 0.44"}
{"sequence": "GTTGTAAAAAGAAAATGTACGTAATAAATATATATA [XGTACX_site3081]", "gcPBM binding intensity (ln)": "8.9 ± 0.45"}
{"sequence": "GTATATTATTTACGTTTGCACTTCATTTTATAGTAA", "gcPBM binding intensity (ln)": "9.11 ± 0.38"}
{"sequence": "TTCTTCAAAAAAAATTGTACACATCTCTCAAATGTT [XGTACX_site2952]", "gcPBM binding intensity (ln)": "8.61 ± 0.48"}
{"sequence": "AATGGATGAATGAATGTATGAATGAATGTATGAATG [CACACA_negctrl_site91]", "gcPBM binding intensity (ln)": "8.96 ± 0.42"}
{"sequence": "TATTAATTGTGGCACCTTGTATGTTTACAATGACAT [CACACA_negctrl_site1383]", "gcPBM binding intensity (ln)": "9.04 ± 0.46"}
{"sequence": "AAAAAAAAAAAAAAGAGTACACAGACGTTCAAAGGT [XGTACX_site7566]", "gcPBM binding intensity (ln)": "9.11 ± 0.49"}
{"sequence": "TGTATGTATTAATGCGCACACAAAAAATAACAATAT [CACACA_site1848]", "gcPBM binding intensity (ln)": "9.48 ± 0.42"}
{"sequence": "TATTGATTTAGAAACACACACTCGAAGATGTTTAAC [CACACA_site1129]", "gcPBM binding intensity (ln)": "8.82 ± 0.38"}
